Measured values as given in US11123439B2, “Antibody drug conjugates (ADCS) and antibody prodrug conjugates (APDCS) with enzymatically cleavable groups” (Bayer Pharma Aktiengesellschaft, priority 2015, dated 2021).

Molecular target: TWEAKR (Homo sapiens, UniProt Q9NP84)
Experiment: Agonistic activity of anti-TWEAKR antibodies (NFκB reporter gene assay)
Assay type: cell-based
Details: all 11 antibodies identified (human IgG1)
Description: 11 different Fab phages were identified, and the corresponding antibodies were cloned into a mammalian EgG expression vector which provides the CH2-CH3 domains missing in the soluble FAb. Following identification of preferred antibodies, these were expressed as full-length IgGs. Aglycosylated variants of the antibodies described have been produced by introducing the mutations N297A or N297Q in the heavy chain of the respective antibodies. These constructs were expressed, for example, transiently in mammalian cells as described by Tom et al., Chapter 12 in Methods Express: Expression Systems edited by Micheal R. Dyson and Yves Durocher, Scion Publishing Ltd, 2007 (see AK-Example 1). The antibodies were purified by protein-A chromatography and characterized further by their binding affinity to soluble monomeric TWEAKR using ELISA and BIAcore analysis, as described in AK-Example 2. To determine the cell binding characteristics of the anti-TWEAKR antibodies, binding was tested by flow cytometry on a number of cell lines (HT29, HS68, HS578). NFκB reporter gene assays were carried out to examine the agonistic activity of all 11 antibodies identified (human IgG1). […] Lastly, 7 variants were selected on the basis of the elevated affinity compared to the best single substitution variant G102T. […]

B1: TPP-883: anti-TWEAKR antibody from phage library; "The antibody having the highest in vitro activity (TPP-883) was selected for further activity and affinity maturation" (antibody, listed as Homo Sapiens)
heavy: EVQLLESGGGLVQPGGSLRLSCAASGFTFSPYPMMWVRQAPGKGLEWVSYISPSGGKTHYADSVKGRFTISRDNSKNTLYLQMNSLRAEDTAVYYCARGGDGYFDYFDYWGQGTLVTVSSASTKGPSVFPLAPSSKSTSGGTAALGCLVKDYFPEPVTVSWNSGALTSGVHTFPAVLQSSGLYSLSSVVTVPSSSLGTQTYICNVNHKPSNTKVDKRV[skipping human IgG1 Fc]
light: AQDIQMTQSPATLSASVGDRVTITCRASQSISSYLNWYQQKPGKAPKLLIYAASSLQSGVPSRFSGSGSGTDFTLTISSLQPEDFATYYCQQSYSSPGITFGPGTKVEIKRTVAAPSVFIFPPSDEQLKSGTASVVCLLNNFYPREAKVQWKVDNALQSGNSQESVTEQDSKDSTYSLSSTLTLSKADYEKHKLYACEVTHQGLSSPVTKSFNRGEC
in vitro activity (agonistic activity): highest in vitro activity
